Where “and” joins values, the source holds several entries; their conditions need not be identical. Equal values may be shown once. Among all 340,000 compounds or so, about 12,000 (3.5%) were called active. This list was built around the results that the source calls inconclusive (neither active nor inactive); the mix of calls is not that of the screen. Calls come from the whole dose curve; as a rule, active = well fitted inhibition curve with a large enough effect; inconclusive = small, poorly fitted or top-dose-only effect, or another doubt; inactive = no such curve, though single readings can be large or run the other way. Potencies beside an inconclusive call are fits to weak or partial responses and may not hold up. The source holds several records for some structures; these can differ, active in one and inactive in another.
assay: qHTS Assay for Inhibitors of Hepatitis C Virus (HCV); settings: Huh7.5.1 HCVcc-Cre (HCVcc is cell-culture hepatitis C virus) infection, luciferase reporter, 44 h; activity change, negative = inhibition: at 41.8 µM (top of the series) unless noted
How it was run: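 HCVcc-Cre virus at an moi near 0.5 was added right after compound to cells cultured 4 h from seeding (1,000 cells/well). Luciferase activity was determined 44 h later, 15 min after substrate addition at RT.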
% is set by controls: 0 for no effect and ±100 for the full control effect; potency is the fitted concentration of half-maximal effect; tags give direction and shape of the fitted curve.

SMILES	Potency	activity change, negative = inhibition
CC(C)N1CC(O)=C(c2nc3ccccc3c(=O)[nH]2)C1=N	inactive	
COc1ccc(N(C(=O)CNC(=O)c2ccco2)C(C(=O)NC2CCCC2)c2ccncc2)cc1 (stereo not drawn)	inactive	
Cc1nc2ccccc2nc1OCC(=O)Nc1ccc2ccccc2c1	inconclusive: 31.6 µM [inhibitor, single point]	
CN1CCN(/N=C/c2ccc(N(c3ccccc3)c3ccccc3)cc2)CC1	inconclusive: 6.31 µM [inhibitor, partial curve]	
COc1ccc(CNC2CCCCC2C)c(OC)c1 (stereo not drawn)	inconclusive: 12.6 µM [inhibitor, single point]	
O=C(CCN1CCOCC1)c1ccc(N2CCCCC2)cc1	inconclusive: 7.94 µM [inhibitor, partial curve]	
NC(=O)N/N=C/c1sc(N2CCCCC2)nc1-c1cccs1	inconclusive: 22.4 µM [inhibitor, single point]	
N#CC(C#N)=NNc1ccc([N+](=O)[O-])cc1	active: 11.2 µM	
COC(=O)c1cc(CNC(=O)c2cccc(Cl)c2)ccc1OC	inconclusive: 31.6 µM [inhibitor, single point]	
CCOC(=O)c1nc(NCc2cccc(OC)c2)c2ccccc2n1	inactive	
COc1ccc(-n2ncc3c(NCc4cccnc4)ncnc32)cc1		inconclusive: -34.7% [inhibitor]
COc1ccc(CN2CCN(c3cccc(C)c3C)CC2)cc1OC	inactive	
Cc1cc(NC(=O)CCN2CCN(Cc3ccccc3)CC2)ccc1Br	inconclusive: 31.6 µM [inhibitor, single point]	
CCN(CC)CCCNC(=O)c1ccc2c3n(nc2c1)-c1ccc(Cl)cc1CO3	inconclusive: 10 µM [inhibitor, partial curve]	
Clc1ccc(OCCOCCNCc2ccccc2)cc1Cl	inactive	
O=C(NC1CCN(Cc2ccccc2)C1)c1cccc(S(=O)(=O)N2CCOCC2)c1 (stereo not drawn)	inconclusive: 35.5 µM [inhibitor, partial curve, poor fit]	
CC1CCN(S(=O)(=O)c2cccc(C(=O)Nc3nccs3)c2)CC1	inconclusive: 31.6 µM [inhibitor, single point]	
Cc1cc(OCC(=O)Nc2ccncc2)ccc1[N+](=O)[O-]	inconclusive: 8.91 µM [inhibitor, partial curve]	
C=C(C)COc1ccc(-c2nc(N)nc(C)c2-c2ccc(OC)cc2)c(O)c1	inconclusive: 7.08 µM [inhibitor, partial curve]	
COc1ccc(-c2nc[nH]c2[N+](=O)[O-])cc1	inactive	
O=C(CN(C(=O)c1csnn1)c1ccccc1C(F)(F)F)NCc1ccccc1	inconclusive: 3.55 µM [inhibitor, single point]	
O=C(c1ccco1)N1CCCC(N2CCN(c3cccc(C(F)(F)F)c3)CC2)C1 (stereo not drawn)	active: 22.4 µM	
CCc1ccc(NC(=O)CCn2c(=O)c3cccn3c3ccccc32)cc1	active: 11.2 µM	
Cc1ccccc1NCc1nc2ccccc2n1C	inactive	
Oc1[nH]c2ccccc2c1N=Nc1ccccc1	inactive	

SMILES	Potency	activity change, negative = inhibition
O=S(=O)(c1ccc(=S)[nH]c1)N1CCCC1	inactive	
CCO[C@@H]1OC(C(=O)N2CCN(Cc3ccc4c(c3)OCO4)CC2)=C[C@H](c2coc3ccccc3c2=O)[C@H]1CCCO	inactive	
CC(C)NC(=O)NS(=O)(=O)c1cnccc1NC1CC2CCC1C2 (stereo not drawn)	inactive	
Cc1cccnc1CN1CCN(C(=O)CCc2nnc(CCc3ccccc3)o2)CC1	inactive	
CCC1CN(C(=O)N2CCC(C(=O)NCc3cccc(OC)c3OC)CC2)c2cc(C)ccc2O1 (stereo not drawn)	inconclusive: 2.24 µM [inhibitor, full curve]	
CCC(C)(C)NC(=O)C(c1ccccc1Cl)N(C(=O)CCC(=O)Nc1cc(C)on1)c1ccc(NC(C)=O)cc1 (stereo not drawn)	inactive	
COC(=O)C1=C(C)NC(=O)/C1=C\c1ccc2c(c1)OCO2	inactive	
O=C(COC(=O)c1ccc2c(c1)OCO2)Nc1ccccc1	inactive	
O=C(Nc1nnc(C2CC2)s1)c1cccs1	inactive	
COc1ccc(-c2ccc3c(c2)S(=O)(=O)c2cccc(C(=O)NCCOc4ccccc4)c2C3=O)cc1OC	inconclusive: 5.01 µM [inhibitor, single point]	
CCN1CCN(CCNC(=O)c2ccc3c(c2)N(Cc2cccc(Cl)c2)C(=O)c2ccccc2S3=O)CC1 (stereo not drawn)	inconclusive: 15.8 µM [inhibitor, single point]	
Cc1ccc(-c2csc(NC(=O)C3=COCCO3)n2)cc1C	active: 7.94 µM	
O=C(Nc1cccc(Cl)c1)Nc1cc(S(=O)(=O)N2CCOCC2)ccc1N1CCCC1	inactive	
CCOC(=O)c1[nH]c2ccc(OC)cc2c1NC(=O)NC(C)C	inactive	
Cc1nn(-c2cc(Cl)ccc2N)c(=O)c2ccccc12	inconclusive: 10 µM [inhibitor, partial curve]	
Cc1ccc(NC(=O)CCC(=O)NNC(=O)c2cccs2)c(C)c1	inconclusive: 31.6 µM [inhibitor, single point]	
CCN(CC(=O)NCc1ccc(F)cc1)S(=O)(=O)c1ccc(Cl)s1	inactive	
O=C(CSc1ncnc2ccccc12)Nc1ccc2c(c1)OCO2	inconclusive: 3.98 µM [inhibitor, full curve]	
CC1CC(C)CN(S(=O)(=O)c2ccc(C(=O)N(C)Cc3ccccc3)cc2)C1 (stereo not drawn)	inconclusive: 31.6 µM [inhibitor, single point]	
O=C(Oc1ccc(NC2=C(Cl)C(=O)c3ccccc3C2=O)cc1)c1ccc([N+](=O)[O-])cc1	inconclusive: 31.6 µM [inhibitor, single point]	
COc1ccc(CN2C(=O)c3ccccc3C2=O)cc1C(=O)Nc1ccccc1N1CCOCC1	inconclusive: 11.2 µM [inhibitor, partial curve]	
O=C(NCCN1CCN(Cc2ccccc2)CC1)c1cc2c(=O)[nH]c3ccccc3c2s1	active: 12.6 µM	
COc1ccc(-c2nn(-c3ccccc3)cc2CNC(=O)c2cccc([N+](=O)[O-])c2)cc1	inconclusive: 0.794 µM [inhibitor, partial curve, poor fit]	
C/C(CC(=O)Nc1ccc(Cl)cc1Cl)=N\NC(N)=S	inconclusive: 0.562 µM [inhibitor, full curve, poor fit]	
C#CCOCCOCCOCCNc1nc(N2CCN(C(=O)Cn3cc(CCCCN)nn3)CC2)nc(N2CCN(C(=O)Cn3cc(CCCCN)nn3)CC2)n1	inconclusive: 5.62 µM [inhibitor, single point]	

SMILES	Potency	activity change, negative = inhibition
COc1ccc([N+](=O)[O-])cc1C1NN=C(c2ccccc2O)S1 (stereo not drawn)	inconclusive: 3.98 µM [inhibitor, full curve]	
O=C(c1ccc(Br)cc1)N(Cc1nc2ccccc2c(=O)[nH]1)C1CCCC1	inconclusive: 0.501 µM [inhibitor, full curve, poor fit]	
O=C(c1cc(COc2ccc3ncccc3c2)on1)N1CCCC1	active: 7.08 µM	
O=C(CCSCCc1ccccn1)Nc1ccccn1	inactive	
COc1cc(/C(C)=N\NC(=O)CSc2nc3ccccc3n2C)ccc1O	inactive	
COC(=O)c1c(NC(=O)Cc2cccs2)sc(C(=O)N2CCCCC2)c1C	inconclusive: 7.94 µM [inhibitor, partial curve] and inconclusive: 31.6 µM [inhibitor, single point]	
Cc1c(C(=O)NCc2ccccc2)oc2ccc(S(=O)(=O)N3CCC4(CC3)OCCO4)cc12	inconclusive: 0.891 µM [inhibitor, full curve, poor fit]	
CN1N=C(N)c2cn(C3OC(COP(=O)(O)O)C(O)C3O)c3ncnc1c23 (stereo not drawn)	inconclusive: 3.16 µM [inhibitor, partial curve]	
COc1ccc(C2NC(=O)NC(C)=C2C(=O)OC2CCCC(C)C2)cc1 (stereo not drawn)	inconclusive: 31.6 µM [inhibitor, single point]	
O=c1[nH]c2ccccc2n1C1CCN(CCCC(c2ccc(F)cc2)c2ccc(F)cc2)CC1	active: 2 µM	
Cc1ccc(-n2c(SCC(=O)N3CCCc4ccccc43)nnc2-c2cccnc2)c(C)c1	inconclusive: 3.16 µM [inhibitor, full curve]	
Cc1cc(NC(=O)CC#N)n(-c2nc3ccccc3[nH]2)n1	inconclusive: 11.2 µM [inhibitor, single point]	
O=C(N/N=C/c1ccc[nH]1)c1cccc(Br)c1	active: 4.47 µM	
Cn1c(NCCCN2CCOCC2)nc2c1c(=O)n(Cc1ccc(Cl)c(Cl)c1)c(=O)n2C	inconclusive: 12.6 µM [inhibitor, single point]	
COc1ccc(Nc2oc(-c3cccs3)nc2C#N)cc1	inconclusive: 11.2 µM [inhibitor, single point]	
COc1ccc(C(=O)CSc2nc3ccccc3n2CC(=O)c2ccccc2)cc1	inconclusive: 25.1 µM [inhibitor, single point]	
N#C/C(=C\c1c(N2CCCCCC2)nc2ccccn2c1=O)C(=O)NCc1ccco1	inconclusive: 11.2 µM [inhibitor, single point]	
Cc1nc2ccc(NC(=O)NCCO)cc2s1	inactive	
O=C(O)c1ccc(N2CCCS2(=O)=O)cc1	inactive	
c1ccc(-n2cc(CN3CCCC(CN4CCCC4)C3)c(-c3ccc4c(c3)OCO4)n2)cc1 (stereo not drawn)	active: 12.6 µM	
Cc1ccc(C)c(C(=O)CN2C(=O)c3ccccc3S2(=O)=O)c1	inactive	
O=C(Nc1ccccc1)c1ccc(N2CCN(c3ccccc3)CC2)c(S(=O)(=O)N2CCOCC2)c1	inactive	
O=C1c2ccccc2-c2nc3ccccc3nc21	inactive	

— PubChem BioAssay AID651820 (National Center for Advancing Translational Sciences (NCATS), 2012)
